The chains are these.
B1: CPEB3 Ribozyme (parent)
chain: UAACAGGGGGCCACAGCAGAAGCGUUCACGUCGCAGCCCCUGUCAGAUUCUGGUGAAUCUGCGAAUUCUGCUGUAUAUCUC

Read counts are not given, so values of variants with three or more changes are uncertain.

Variants of B1 are the subject of this series. In words: self-cleavage, relative activity (ratio to wild type); higher = more cleavage; in vitro, sequencing. The essentials:
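For each CPEB3 ribozyme variant, relative activity is its cleaved/total read fraction divided by the unmutated ribozyme's. Barcoded error-prone PCR libraries were transcribed by T7 RNA polymerase (5 hours, 37°C) and held in DNase I for 15 min before an EDTA stop, with cleavage occurring throughout. Template-switching reverse transcription and Illumina sequencing were used to read the RNAs. A 5-read minimum applied, and results are the mean of three batches.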
Turning to UAACUGGGGGCCACAGCAGUAGCGUUCACUUCGCAGCCCCUGUCUGAUUCUGGUGACUCUGCGAAUUCUGCUGUAUAUCUC, the self-cleavage was found to be 0.13.

As for UAACUGGGGGCCACAGCAGAGGCGUUCACGUCGCAGCCCCUGACAGAAUCUGGUGAAUCUGCGAAUUCCGCUGUAUAACUC, the self-cleavage worked out at 0.04.

For the variant UAACUGGGGGCCACAGCAGUAGCGUCCACGUCGCCGCCCCUGUCAGAUUCUGGCGAAUCUGCGAAUCCUGCUGUAUAUCUC, the self-cleavage worked out at 0.09.

With UAACUGGGGGCCACAGCAGAAGCGUUCGCGUCGCAUCCCCUGUCAGAUUCUGGUGAAUCCGCGAAUCAUGCUGUAUAUCUC, the self-cleavage amounted to 0.13.

For the variant UAACUGGGGGCCACAGCAGAGGCGUUCACGUCGCGGCCCCUGACAGAUUCUGGUGAAUCUGCGAAUUCAGCUGUAUAUCUC, the self-cleavage came out at 0.69.

Consider UAACUGGGGGCCACAGCAGUAGCGUUCACGUCGAAGCCCCUGUCAGAUACUGGUGAAUCUGCGAAUUCUGCUGUAUAUCUC, for which the self-cleavage stood at 0.22.

Regarding UAACUGGGGGCCACAGCAGAAGCGUUCGCGUCGCAGCCCCUGCCAGAUUCUGGUGAAUCUGCGAAUUCUGCUGUAUAUCUC, the self-cleavage was 0.41.

In the case of UAACUGGGGGCCACAGCAGAAGCGUUCCCGCCGCAGCCCCUGUCAGAUCCUGGUCAAUCUGCGGAUUCUGCUGUAUACCUC, the self-cleavage was determined as 0.08.

UAACUGGGGGCCACAGCAGUAGCGUUCACGUCGCGGCCCCUGUCAGAUUCUGGUGAAUCUGCGCAUUCUGCUGUAUACCUC: the self-cleavage is 0.21.

In the case of UAACUGGGGGCCACAGCAGAAGCGUUCUCGUCGCAGCCCCUGUUAGAUUCUGGUGAAUCUGCGAAUUCUGCAGUAUGUCUC, the self-cleavage was determined as 0.1.

On to UAACUGGGGGCCACAGCAGUAGCGUUCACGAGGCAACCCCUGUCUGAUUCUGGUGAAUCUGCGAGUUCUGCUGUAUAUCUC, for which the self-cleavage was determined as 0.16.

UAACUGGGGGCCACAGCAGUAGCGUUCACGUCGCUGCCCCUGUCAGAUUCUGGUGAAUCUGCGAAUUCUGCUGUAUAUCUC: the self-cleavage turned out to be 0.3.

Turning to UAACUGGGGGCCACAGCAGGAGCGUUCACGUCGCAGCCCCUGUCAGAUUCUGGUGAAUCUGCGAAUUCUGCUGCACAUCUC, the self-cleavage was found to be 0.94.

Consider UAACUGGGGGCCACAGCAGAAGCGUUCUCGUCGCAGCCCCUGUCAGAUUCUGGUGAAUCUGCGAGUUCUGCUGUGCAUCUC, for which the self-cleavage came to 0.2.

As to UAACUGGGGGCCACAGCAGAGGCGCUCACGUCGCGGCCCCUGUCAGAUUCUGGUGAAUCAGCGAAUUCUGCUGUUUAUCUC, the self-cleavage was found to be 0.03.

Regarding UAACUGGGGGCCACAGCAGGAGCGUUCACGUCGCAGCCCCUGUCAGAUUCUGGUGAAUCUGCGAAUUCAGCUGUAUAUCUC, the self-cleavage stood at 0.48.

As for UAACUGGGGGCCACAGCAGAGGCGUUCACGUCGCAGCCCCUGUCAGAUUCUGGUGCAUCUGCGAAUUCUGCAGUAUAUCUC, the self-cleavage stood at 0.13.

UAACUGGGGGCCACAGCAGAGGCGUUCACGUCGCAGCCCCAGUCAGAUUCUGGUGAAUCUGCGAAUUCUGCUGCAUUUCUC: the self-cleavage was determined as 0.82.

Take UAACUGGGGGCCACAGCAGAAGCGUUCGCGCCGCUGCCCCUGUCAGAUUCUGGUGUAUCUGCGAAUUCUGCUGCAUAUCUC: the self-cleavage turned out to be 0.16.

On to UAACUGGGGGCCACAGCAGGAGCGUUCACGUCGCAGCCCCUGUCAGACUCUGGUGAAUCUGCGAAUUCCGCUGUAUAUCUC, for which the self-cleavage is 0.25.

In the case of UAACUGGGGGCCACAGCAGAGGCGUUCACGUCGCAGCCCCUGUCAGAUUCUCGUGAAUCUGCGAAUUCUGCUGUAUAUCCC, the self-cleavage is 0.78.

UAACUGGGGGCCACAGCAGAAGCGUUCGCGUCGCAGCCCCUGUCAGAUUCAGGUGAAUCUGCGAAUUCUGCUGUAUAUCUC: the self-cleavage turned out to be 0.65.

For UAACUGGGGGCCACAGCAGAAGCGUUCGCGUCGCAGCCCCUGUCAGAUUCUGGUGAAUCUGCGAAUUCUGCCGUAUGUCUC, the self-cleavage amounted to 0.97.

Regarding UAACUGGGGGCCACAGCAGAGGCGUUCAUGUCGCAGUCCCUGGCAGAUUCUGGUGAAUCUGCGAAUUCUGCUGUAUAUCUC, the self-cleavage was found to be 0.19.

Consider UAACUGGGGGCCACAGCAGUAGCGUUCACGUCGCAGCCCCUGUCAGAUUCUGGUGAAUCUGCGAACUCCGCUGUAUAUCUC, for which the self-cleavage came out at 0.2.

Take UAACUGGGGGCCACAGCAGAGGCGUUCACGUCGCAGCCCCUGUCAGAUUCUGGCGCAUCUGCGAAUUCUGCUGUAUAUCUC: the self-cleavage was 0.21.

Take UAACUGGGGGCCACAGCAGAAGCGUUCGCGUCGCGGCCCCUGUCAGACUCUGGUGAAUCUGCGAAUUCUGCUGUAUAUCUC: the self-cleavage was 0.66.

As for UAACUGGGGGCCACAGCAGAGGCGUUCACGUCGCAGCCCCUGUCAGAUUCUGGUGAAUCUGCGAAUUCUGCUGUGUAUCUC, the self-cleavage was determined as 0.65.

For the variant UAACUGGGGGCCACAGCAGAAGCGUUCUCGUCGCAGCCCCUGUCAGAUUCUGGUGAAUCUGCGAAUUCUGCUGUCUAUCUC, the self-cleavage came to 1.32.

For UAACUGGGGGCCACAGCAGUAGCGUUCACGUCGCAGCCCCUGUCAGAUUCUGGUGAACCUGCGAAUUCUGCUGUAUAUCUC, the self-cleavage was found to be 0.16.

As for UAACUGGGGGCCACAGCAGAGGCGUUCACGUCGCAGCCCCUGUCAGAUUCUGGUGAAUCUGCGGGCUCUGCUGUAUAUCUC, the self-cleavage was determined as 0.27.

Consider UAACUGGGGGCCACAGCAGAAGCGUUCGCGUCGCAGCCCCUGCCAGAUCCUGGUGAAUCUGCGAAUUCUGCUGUAUAUCUC, for which the self-cleavage is 0.33.

Turning to UAACUGGGGGCCACAGCAGAGGCGUUCACGUCGCAGCCCCUGUCAGAUUCUGGCGAACCUGCGAAUUCUGCUGUAUUUCUC, the self-cleavage was 0.2.

For UAACUGGGGGCCACAGCAGUAGCGUUCACGUCGCAGCCCCUGUCAGAUUCUGGUGAAUCUGCGAACUCUGCUGUAUAUCUC, the self-cleavage is 0.25.

Regarding UAACUGGGGGCCACAGCAGAGGCGUUCACGUCGCAGGCCCUGUCAGACUCUGGUGAAUCUGCGAAUUCUGCUGUAUAUCUC, the self-cleavage is 0.22.

For UAACUGGGGGCCACAGCAGAAGCGUUCGCGUCGCAGCCCCAGUCAGAUUCUGGUGAAUCUGCGAAUACUGCUGUAUAUCUC, the self-cleavage came to 0.11.

On to UAACUGGGGGCCACAGCAGAGGCGUACACGUCGCAGCCCCUGUCAGAUUCUGGUGAAUCUGCGAAUUCUGCUGUAUAUCUC, for which the self-cleavage turned out to be 0.58.

As for UAACUGGGGGCCACAGCAGAGGCGUUCACGUCGCAGCCCCUGUCAGAUUAUGGUGAAUCUGCGAUUUCUGCUGUAUAUCUC, the self-cleavage is 0.2.

With UAACUGGGGGCCACAGCAGAAGCGUUCGCGUCGCAGCCCCCGUCGGAUUCAGGUGAAUCUGCGAAUUCUGCUGUAUAUCUC, the self-cleavage worked out at 0.6.

On to UAACUGGGGGCCACAGCAGUAGCGUUCACGUCGCAGCCCCUGUCAGAUUCUGGUGAAUCUGCGAGUUCUGCUGUAUAUCUC, for which the self-cleavage was 0.21.

Turning to UAACUGGGGGCCACAGCAGAGGCGUUCACGUCGCUGCCCCUGUCAGAUUCUGGUGAAUCUGCGAGUUCUGCUGUAUAUCUC, the self-cleavage stood at 0.17.

Take UAACUGGGGGCCACAGCAGUAGCGUUCACGUCGCAGCCCCUGUCAGAUUCUGGUGGAUCUGCGAAUUCUGCUGUACAUCUC: the self-cleavage is 0.28.

On to UAACUGGGGGCCACAGCAGAGGCGUUAACGUCGCAGCCCCUGUAAGAUUCUGGUGAGUCAGUGAAUUCUGCUGUAUAUCUC, for which the self-cleavage amounted to 0.15.

Take UAACUGGGGGCCACAGCAGAGGCGUACGCGUCGCAGCCCCUGUCAGAUUCUGGUGAAUCUGCGAAAACUGAUGUAUAUCUC: the self-cleavage was found to be 0.1.

UAACUGGGGGCCACAGCAGGAGCGUUCACGUCGCAGCCCCUGUCAGAUUCUGGUGAAUCUGCGAAUCCCGCUGUAUAUCUC: the self-cleavage is 0.57.

UAACUGGGGGCCACAGCAGUAGCGUUCGCGUCGCAGCCCCUGUCAGAUUCUGGGGAAUCUGCGAAUUCUGCUGCAUAUCUC: the self-cleavage was determined as 0.12.

Take UAACUGGGGGCCACAGCAGAGGCGUUCGCGUCGCAGCCCCUGUCAGAUUAUGGUGAAUCUGCGAAUUCUGCUGUAUAUCUC: the self-cleavage was 0.53.

For UAACUGGGGGCCACAGCAGAAGCGUUCGCGUCGCAGCCCCUGUCAGAUACUGGUCAAUCUGCGAAUUCUGAGGUAUUUCUC, the self-cleavage was 0.04.

With UAACUGGGGGCCACAGCAGAAGCGUUCCCGUCGCAGCCCCUGUCAGAUUCUGGUGGAUCUGCGAAUUCUGCUGUAUAUCUC, the self-cleavage was 0.67.

Consider UAACUGGGGGCCACAGCAGAAGCGUUCGCGUCGCAGCCCCUGUCAGAUUAUGGUGAAUCUGCGAAUUCUGCUGUAUAUCUC, for which the self-cleavage turned out to be 0.27.

As for UAACUGGGGGCCACAGCAGUAGCGUUCACGUCGCAGCCCCUGUCGGAUUCUGGUGAAUCUGCGAAUUCUGCUGAUUAUCUC, the self-cleavage was 0.55.

On to UAACUGGGGGCCACAGCAGAGGCGUUCACGUCGCAGCCCCUGUCAGAUUCUGGUGAAUCCGCGAAUUGUGCUGUAUAUCCC, for which the self-cleavage is 0.11.

Take UAACUGGGGGCCACAGCAGUAGCGCUCACGUCGCAGCCCCCGUCAGAAUCUGGUGAAUCUGCGAAUUCUGCUGCAUACCUC: the self-cleavage came out at 0.15.

Turning to UAACUGGGGGCCACAGCAGAAGCGUUCGCGUCGCAGCCCCUGUCAGAUUCUGGUGAAUCUGCGUAUUCUGCUGUAUAUCUC, the self-cleavage turned out to be 0.24.

UAACUGGGGGCCACAGCAGGAGCGUUCACGUCGCAGCCCCUGUCAGACUCUGGUGAAUCUGCGAAUUCUGCUGUAUAUCUC: the self-cleavage was determined as 0.41.

For the variant UAACUGGGGGCCACAGCAGUAGCGUUCAGGUCGCAGCCCCUGUCAGAUUCUGGUGAAUCUGCGAAUUCUGCUGCAUAUCUC, the self-cleavage was found to be 0.11.

Take UAACUGGGGGCCACAGCAGUAGCGUUCACGGCUCAGCCGCUGUCAGAUUCUGGAGAAUCUGCGAAUUCUGCUGUAUAUCUC: the self-cleavage was 0.08.

For UAACUGGGGGCCACAGCAGGAGCGUUCACGUCGCAGCCCCUGCCAGAUUCUGGUGCAUCUGCGAAUUCAGCUGUAUACCUC, the self-cleavage amounted to 0.09.

Regarding UAACUGGGGGCCACAGCAGUAGCGUUCAUGUCGCGGCCCCUGUCAGAUUCUGGAGAAUCUGCGGAUUCUGCUGUAUAUCUC, the self-cleavage was 0.04.

On to UAACUGGGGGCCACAGCAGAUGCGUUCACGUCGCAGCCCCUGUCGUAUUCCGGUGAACCUGCGAAUUCUGCUGUAUAUCUC, for which the self-cleavage was 0.2.

In the case of UAACUGGGGGCCACAGCAGAGGCAUUCACGCCGCAGCCCCUGUCUGAUUCUGGUGAAUCUGCGAAUUCUGCUGAAUAUCUC, the self-cleavage was 0.28.

In the case of UAACUGGGGGCCACAGCAGAAGCGUUCGAGCCGCAGCCCCUGCCAGAUUCUGGUGAAUCUGCGAAUUCUGCUGUAUAUCGC, the self-cleavage was determined as 0.22.

As for UAACUGGGGGCCACAGCAGAAGCGUUCGCGUCGCAGCGCCUGUCGGAUUCAGGUGAAUCUGCGAAUUCUGCUGUAUAUCUC, the self-cleavage was found to be 0.03.

Consider UAACUGGGGGCCACAGCAGUAGCGUUCAUGUCGCAGCCCCUGUCAGAUACAGGUGAAUCUGCGAAUUCUGCAGUAUAUCUC, for which the self-cleavage turned out to be 0.08.

For UAACUGGGGGCCACAGCAGUAGUGCUCACGUCGCAGCCCCUGUCUGAUUCUGGUGAAUCUGCGAAUUCUGCUGUUUAUCUC, the self-cleavage turned out to be 0.08.

Turning to UAACUGGGGGCCACAGCAGGAGCGUUCACGUCGCAGCCCCUGCCAGAUUCUGGUGAAUCUGCGAACUCUGCUGUAUAUCUC, the self-cleavage amounted to 0.2.

On to UAACUGGGGGCCACAGCAGUAGCGCUCACGUCGCAGCCCCUGUCAGACUCUGGUGAAUCUGCGGAUUCUGCUGUAUAUCUC, for which the self-cleavage stood at 0.14.

For the variant UAACUGGGGGCCACAGCAGAAGCGUUCUCGUCGCGGCCCCUGUCAGAUUCAGGUGAAUCUGCGAAUUCUGCCGUAUAUCCC, the self-cleavage stood at 1.26.
